According to a collection of fitness landscapes (doi:10.1016/j.celrep.2020.107928):
The full ranking holds about 81,000 sequences; the median of “one-hybrid fitness for binding NBS DNA” is about -0.1, and the highest 2% start at about 0.36. Some of the results follow.

B1: Caulobacter ParB omega fusion; a variant is named by its letters at X, in order, B8GW30 (parent)
chain: MESVVVGEPGMSEGRRGLGRGLSALLGEVDAAPAQAPGEQLGGSREAPIEILQRNPDQPRRTFREEDLEDLSNSIREKGVLQPILVRPSPDTAGEYQIVAGERAWRAAQRAGLKTVPIMVRELDDLAVLEIGIIENVQRADLNVLEEALSYKVLMEKFERTQENIAQTIGKSXSHVANXMRLLXLPDEVQSYLVSGELTAXHARAIAAAADPVALAKQIIEGGLSVRETEALARKAPNLSAGKSKGGRPPRVKDTDTQALESDLSSVLGLDVSIDHRGSTGTLTITYATLEQLDDLCNRLTRGI

Variants of: B1
Test: one-hybrid fitness for binding NBS DNA (the Noc-binding site; scaled: cognate 1, non-cognate 0); higher = stronger binding
Conditions: with NBS DNA site
How it was run: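 Selection: bacterial one-hybrid in E. coli USO, HIS3 reporter with the site 19 bp from the promoter, 48 hours at 37°C on M9-minus-histidine plus 0.1 mM IPTG and 5 mM 3-AT. Libraries were Caulobacter ParB with four randomised specificity codons, sequenced on Illumina before and after selection. Fitness is the rescaled log change in variant-to-wild-type read ratio, anchored to the cognate and non-cognate sites.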

Variant | one-hybrid fitness for binding NBS DNA
THLH | ≤ 0.2
VKYP | ≤ 0.2
HLTG | ≤ 0.2
CPMT | ≤ 0.2
NKTE | ≤ 0.2
EGYL | ≤ 0.2
EMHF | ≤ 0.2
QSCE | ≤ 0.2
FVLG | ≤ 0.2
MLVS | ≤ 0.2
RNQE | ≤ 0.2
GTMI | ≤ 0.2
QKEH | ≤ 0.2
IRTR | 0.302
RWDA | ≤ 0.2
ENDR | ≤ 0.2
VICT | ≤ 0.2
CHIR | ≤ 0.2
QDKS | ≤ 0.2
NLRA | ≤ 0.2
SAHN | ≤ 0.2
TWKR | ≤ 0.2
RKID | ≤ 0.2
VMFL | ≤ 0.2
QNSR | ≤ 0.2
RSKF | ≤ 0.2

Variant | one-hybrid fitness for binding NBS DNA
DRIT | ≤ 0.2
CIRS | ≤ 0.2
STLM | ≤ 0.2
PNGL | ≤ 0.2
CQMR | ≤ 0.2
VPCV | ≤ 0.2
PPLH | ≤ 0.2
HSGL | ≤ 0.2
PPKE | ≤ 0.2
LWAC | ≤ 0.2
LWFS | ≤ 0.2
DMVS | ≤ 0.2
AEPA | ≤ 0.2
NNEF | ≤ 0.2
QIGY | ≤ 0.2
FHKS | ≤ 0.2
KPSE | ≤ 0.2
MLTP | ≤ 0.2
RTPV | ≤ 0.2
PPGR | ≤ 0.2
HSSF | ≤ 0.2
PKSA | ≤ 0.2
FIKR | ≤ 0.2
TVNA | ≤ 0.2
GPLW | ≤ 0.2
AESF | ≤ 0.2

Variant | one-hybrid fitness for binding NBS DNA
TIKW | ≤ 0.2
TRVA | ≤ 0.2
TSQP | ≤ 0.2
ETSC | ≤ 0.2
CKAE | ≤ 0.2
KLNL | ≤ 0.2
LIWC | ≤ 0.2
KIKC | ≤ 0.2
CHER | ≤ 0.2
QVTP | ≤ 0.2
WLLH | ≤ 0.2
AFWW | ≤ 0.2
WACC | ≤ 0.2
STFC | ≤ 0.2
RWGI | ≤ 0.2
GQPM | ≤ 0.2
WAFR | ≤ 0.2
PTKA | ≤ 0.2
RLPT | ≤ 0.2
DGYT | ≤ 0.2
PLQI | ≤ 0.2
SAFH | ≤ 0.2
TKDN | ≤ 0.2
DLKR | ≤ 0.2
RIMM | ≤ 0.2
MVNS | ≤ 0.2

Variant | one-hybrid fitness for binding NBS DNA
SNPF | ≤ 0.2
IRCS | ≤ 0.2
PVNG | ≤ 0.2
QHDY | ≤ 0.2
KPTT | ≤ 0.2
KCSR | ≤ 0.2
QGEG | ≤ 0.2
VIHG | ≤ 0.2
SIGV | ≤ 0.2
TATE | ≤ 0.2
ARAK | ≤ 0.2
MAVT | ≤ 0.2
KWHL | ≤ 0.2
RGQT | ≤ 0.2
QVMD | ≤ 0.2
NWPE | ≤ 0.2
HTTR | ≤ 0.2
PSAA | ≤ 0.2
ACLT | ≤ 0.2
EATA | ≤ 0.2
SITY | ≤ 0.2
IHGP | ≤ 0.2
EGKQ | ≤ 0.2
NATW | ≤ 0.2
MLDV | ≤ 0.2
MAKN | ≤ 0.2

Variant | one-hybrid fitness for binding NBS DNA
MWKC | ≤ 0.2
EVEG | ≤ 0.2
APQM | ≤ 0.2
PKLY | ≤ 0.2
RIKC | 0.284
YFHS | ≤ 0.2
ATFG | ≤ 0.2
IHRS | ≤ 0.2
LKHK | ≤ 0.2
WSYA | ≤ 0.2
RVRR | 0.626
RQCE | ≤ 0.2
QTWI | ≤ 0.2
PRWR | ≤ 0.2
VLIC | ≤ 0.2
HGKF | ≤ 0.2
FHCT | ≤ 0.2
EDQG | ≤ 0.2
SSAW | ≤ 0.2
WYCV | 0.366
KSVT | ≤ 0.2
AFEG | ≤ 0.2
GHTV | ≤ 0.2
GQVR | ≤ 0.2
WHCG | ≤ 0.2
YPPT | ≤ 0.2

Variant | one-hybrid fitness for binding NBS DNA
GNER | ≤ 0.2
FARR | ≤ 0.2
ANWG | ≤ 0.2
IPSY | ≤ 0.2
AVCV | ≤ 0.2
HVET | ≤ 0.2
GCSE | ≤ 0.2
TLIK | ≤ 0.2
LKDC | ≤ 0.2
DIDS | ≤ 0.2
LNSR | ≤ 0.2
WTGT | ≤ 0.2
QYHG | ≤ 0.2
LAPE | ≤ 0.2
REGR | ≤ 0.2
AILK | ≤ 0.2
RVNY | ≤ 0.2
CHLY | 0.222
NWSG | ≤ 0.2
GDPD | ≤ 0.2
MRQR | ≤ 0.2
RYEQ | ≤ 0.2
FQPL | ≤ 0.2
